Test results published in the RNAGym collection of RNA variant scans (doi:10.7554/elife.90254).
Read counts are not given, so values of variants with three or more changes are uncertain.

B1: LINE1-mini (parent)
chain: GGCAGAGCUCAACACAGCGUGGCAAAGUGGCUGUGGCUAGACUGCC

Variants of: B1
Test: self-cleavage, relative activity (ratio to wild type); higher = more cleavage; in vitro, sequencing; the parent is a self-cleaving ribozyme

Variant | self-cleavage
C8U A11C G27U C31U | 0.01
G35A C37U C42U | 0.02
G22A A24U C37U C42G | 0.02
G17U U20A C31U G36C | 0.02
G5A U9C C18A | 0.03
G19A G21A G27A C45U | 1.46
C8U C23U U38G | 0.01
G7U G17C A41U | 0.07
A16G G40C A41U C42A | 0.04
C10A A14G C15G G35A C46A | 0.01
G1U A14G G17A G36U C46G | 0.02
A14C G17A A25G G44A | 0.06
C13U A16C C23A | 0.17
G2A C13U G21U G33A U38C A41G C42U | 0.16
C13U G22A G27C G44A C46U | 0.05
C13G C15A G17A | 0.14
C13G G22A G40U | 0.07
A4G C13A G21C C23U | 0.09
G2U A14U U28C C31A | 0.03
A6U G19U C37G | 0.02
G1U C15G G35C G44U | 0.01
C13A C23A G36U | 0.7
A11C U38G A39U | 0.01
U9G C13A A16C U38C | 0.04

Variant | self-cleavage
C15U G17U G33C C45G | 0.02
U9G G21C G29A U34A C42G C45A | 0.04
A4G A11C C23A G27C C46A | 0
G2U G5C U9A G19C U43A | 0.01
A12G G17C A25G G40A | 0.01
G2U U28C U32C U38G | 0.01
G7A G17U A39C | 0.01
G2C A11G C23G G36A | 0.05
G21A G35C A41U | 0.07
G5A A14U C15A G33U U34A | 0.3
G1U C3U C13A A16C G21U | 0.29
G1C A24C A25G C31U G36U | 0.02
C23U C31U G36A A41U | 0.12
C10A G17U G19C G36U | 0.01
C10U A12G C15U G36U | 0.02
A11C A24U G35A | 0.03
A12G G27A C31A | 0.02
C13G A14U A16U A24C | 0.03
C23U C31U C45U | 0.4
G7C A11U A26C | 0.07
G22U U28G C45A | 0.11
A14U G35C A41G | 0.15
U20C A25C U28C | 0.63
A6G G19C U28C A39U | 0.01

Variant | self-cleavage
G19C G21C G30C | 1.01
U9C C18G C23U A24U | 0.02
G5A G29A C31U | 0.07
C13G A26U A39U | 0.06
C10G C15U A26G C46G | 0.02
G17U C18A G36U | 0.02
G2A C3U G33U G44U | 0.25
A14C A16C C18U U28G | 0
G2C G17A G36A C45A C46G | 0.04
G7C G19A G30C G36U G40A | 0.1
G1C G2C A4G U28C G33C | 0.08
U9G A14U G30A C31G G40U | 0.02
G5U G19A U38A G44A | 0.11
A4G A14G A16G U20C C42A | 0.33
G21C A25U U32A G33U G36A G40A | 0.12
C3U A4C A6U C31G | 0.04
C8A G19C G22U C31G | 0.28
U9C A11U A12U A24U G33U | 0.01
A4U G19U G30A | 0.05
C3G G7U G22A | 0.06
C8A U20C C23U G27U G35C U38G | 0.17
G2A A14C G33U A39C U43C | 0
A16C C18G G27C U34A | 0.26
A6C C10G A24U U28G U38A | 0.01

Variant | self-cleavage
A11U A16U C18U G19U G33C G36A A41U | 0.01
A12U C15A U32A | 0.05
G5C G30U C42G | 0.11
G19C A26U U43C | 0.03
G1A G5U A6G U9G U38G A41U | 0.03
G30C U38A C42A C45G | 0
G2A A11U G44U | 0.12
G5U U9G G27A G33A C46A | 0.07
A6C C13G A16C G17C U34A | 0.27
A14G G27A C46A | 0.41
G30A G40A U43A G44C | 0.1
G19C U34C C46A | 0.21
A12G G19A U20C G22A A25C U28C | 0.01
A14U G40C C46A | 0.05
G7U G35U C46A | 0.11
G30A G33C C45A | 0.02
C10G A14U C15A G21A A25U A41G | 0
G7A C10U A11U G17A | 0.04
U20G U34C U43C | 0.02
C3A C31A G40C | 0.1
A4G A14G C37U G44A | 0.11
A6C C8G A11C A14G G29U U43G | 0
C3U A4C A6U A16U G30U G33U | 0.02
A6U G19C G21U | 0.26

Variant | self-cleavage
G5C C8U G22A G33C | 0.03
G5U C8U G21U | 0.08
G17A C23U A24G G27C | 0.26
G29A G30U U32C A41C | 0.02
A11U U28C C46U | 0.07
A6U A14C G40C | 0.01
C3A G22A G35A A39U | 0.08
C23A A25U U34C U43A | 0.03
A11U C13A C15A A25U G29C A39U C45G | 0
U32A G40C C42G | 0.11
A6G U9C C18G | 0.02
U9A A14G G29A G35C | 0.02
G1U G7A G21U G27A G40A | 0.01
C8U C10U G27U | 0.06
G2C G5C C15A G17U | 0.06
G5U G7C A26U G27U | 0.01
C15G C23G A25C | 0.01
C3G U20C A26G U32A | 0.08
G5C C8U G35U | 0.35
G7A G29U G30A C45A C46A | 0.21
C10U U20A C31U G33U G40A | 0.01
U20C U28G C37A | 0.01
A16U C31A G44C | 0.02
G5C A24U C31U U34C | 0.32

Variant | self-cleavage
A4G A6C G17U C46A | 0.69
G1C A14G C37U | 0.01
C13G G27U C31U | 0.1
G29A A39C C45G | 0.63
C3U G5A C31A | 0.1
G2C A6U G7U A14C G19U G29U | 0.07
A4G G17A U34A C46U | 0.12
C10A A14G A16C G17U | 0.02
A11C A12C C13U A14G G33U | 0.01
A4G U20C G33U C46G | 0.03
C3A A6G A14G | 0.22
G7A C13U A41U | 0.12
C15A A24C A26U A39C | 0.48
G5U G40A C45A | 0.01
G2U A12G U43C | 0.02
G1A U28G C45G | 0.4
G17A G19C G35A | 0.04
C3U C18G G21U C37G C45G | 0.33
U20G G33C C42U | 0.02
G21U U28G G40A | 0.04
C8U A11G C13G | 0.1
G1C C10G A11C G22A A25C U38A | 0
A14G G33A A39U | 0.09
C3A C8G G36C | 0.18

Variant | self-cleavage
C8A C13U C37U | 0.28
A4U C15A C23U | 0.07
U9G C13U C15A C18A | 0.41
G1U A11U C18U | 0.03
A4C A11C C23A C45A | 0
A14U C23A G35U | 0.07
G2U A4U C13A G22C C42A C45G | 0.01
G7U C13A C18A A24C A26G C31A A39G | 0
C3A G22C C46G | 0.08
C37A G44C C46G | 0.23
C15U C23G U43A | 0.32
C18A G21C A41U | 0.42
C23G G36U A41G | 0.03
A6U G21U A39U G40A | 0.31
G2C C15A C18A C31G A39G G44U | 0.02
G2A U9G C42A | 0.17
C3A C31U U34G C46G | 0.09
G30C G33A U38G | 0.03
G1A C8U C13G C23U A24U | 0.03
C8U U9G A39G | 0.04
A12U A14C C31G G36A A39U C46A | 0
C8U U9A A12U | 0.14
G1C A12G C46A | 0.01
